The results in this text go back to paper PMC4336329 (PLoS ONE, 2015).

Out of some 310,000 compounds screened, about 2,200 (0.71%) showed an effect of 50% or more. The effect is printed as a negative number. This is one part of the list.

In the test the target is human ether-à-go-go-related gene (hERG) potassium channel (human, UniProt Q12809). Kind of test: primary screen, population patch clamp on CHO cells stably expressing hERG.
Sequence of human ether-à-go-go-related gene (hERG) potassium channel (Q12809 whole entry, looked up): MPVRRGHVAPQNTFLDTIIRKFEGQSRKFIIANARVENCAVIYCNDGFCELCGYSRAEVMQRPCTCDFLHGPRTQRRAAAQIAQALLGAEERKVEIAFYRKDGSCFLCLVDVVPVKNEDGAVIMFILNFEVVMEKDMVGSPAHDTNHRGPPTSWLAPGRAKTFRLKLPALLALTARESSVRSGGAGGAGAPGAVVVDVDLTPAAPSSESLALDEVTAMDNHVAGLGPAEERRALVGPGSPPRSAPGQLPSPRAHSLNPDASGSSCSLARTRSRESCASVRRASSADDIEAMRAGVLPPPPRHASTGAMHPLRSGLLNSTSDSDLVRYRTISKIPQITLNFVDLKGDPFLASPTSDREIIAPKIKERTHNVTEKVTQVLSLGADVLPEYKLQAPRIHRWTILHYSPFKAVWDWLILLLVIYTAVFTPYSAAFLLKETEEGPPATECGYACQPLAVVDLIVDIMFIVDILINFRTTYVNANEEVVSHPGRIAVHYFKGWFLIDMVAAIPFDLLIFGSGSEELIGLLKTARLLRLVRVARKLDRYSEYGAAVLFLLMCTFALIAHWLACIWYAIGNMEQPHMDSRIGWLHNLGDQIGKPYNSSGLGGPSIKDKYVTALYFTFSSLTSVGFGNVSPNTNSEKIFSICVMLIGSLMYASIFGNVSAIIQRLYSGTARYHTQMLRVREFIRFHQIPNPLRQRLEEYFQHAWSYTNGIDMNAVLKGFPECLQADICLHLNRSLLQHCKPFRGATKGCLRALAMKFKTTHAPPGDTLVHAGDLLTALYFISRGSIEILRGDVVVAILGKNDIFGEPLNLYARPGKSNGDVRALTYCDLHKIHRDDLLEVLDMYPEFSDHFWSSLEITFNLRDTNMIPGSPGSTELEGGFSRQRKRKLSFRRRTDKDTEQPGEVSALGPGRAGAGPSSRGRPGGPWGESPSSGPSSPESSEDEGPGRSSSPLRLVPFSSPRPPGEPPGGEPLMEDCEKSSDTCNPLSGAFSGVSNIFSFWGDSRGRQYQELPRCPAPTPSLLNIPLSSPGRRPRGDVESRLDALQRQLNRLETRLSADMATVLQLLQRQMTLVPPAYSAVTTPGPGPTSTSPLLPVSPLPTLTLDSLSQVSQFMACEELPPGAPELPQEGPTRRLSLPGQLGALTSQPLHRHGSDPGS
Take `CCCCSc1nnc(-c2c[nH]c3ccccc23)n1C`: the “hERG current change (%, negative = inhibition) at 1uM” value is recorded as -1.83%.

For the compound `COc1ccc2cc(CN(CC3CCCO3)S(=O)(=O)c3ccccc3)c(=O)[nH]c2c1` (stereo not drawn), the “hERG current change (%, negative = inhibition) at 1uM” value was found to be 3.71%.

Regarding `N#C/C(=C/c1ccc(N2CCCCC2)cc1)c1cccc(F)c1`, the “hERG current change (%, negative = inhibition) at 1uM” value is given as 3.4%.

Regarding `CCC(C)NC(=O)C1CCCN(S(=O)(=O)c2ccc3c(c2)CC(C)N3C(C)=O)C1` (stereo not drawn), the “hERG current change (%, negative = inhibition) at 1uM” value was -4.49%.

Take `O=C(NCc1ccco1)c1cc(-c2cccnc2)nc2ccccc12`: the “hERG current change (%, negative = inhibition) at 1uM” value is -5.6%.

Turning to `O=C(Nc1ccccc1)c1cc(S(=O)(=O)Nc2cccnc2)ccc1Cl`, the “hERG current change (%, negative = inhibition) at 1uM” value was 3.29%.

As for `Cc1nnc(C)n1N1C(=O)c2cccc3cccc(c23)C1=O`, the “hERG current change (%, negative = inhibition) at 1uM” value was 2.26%.

Consider `COc1cccc(OCC(=O)Nc2ccccc2C(=O)Nc2ccc(C(=O)O)cc2)c1`, for which the “hERG current change (%, negative = inhibition) at 1uM” value came to 15.6%.

As for `CC(C(=O)N1CCCC1)N1CCN(S(=O)(=O)c2ccc(OC(F)(F)F)cc2)CC1` (stereo not drawn), the “hERG current change (%, negative = inhibition) at 1uM” value is -3.11%.

For the compound `CCCn1c(C)cc(/C=C(\C#N)C(=O)OCC(=O)N(C)c2c(N)n(Cc3ccccc3)c(=O)[nH]c2=O)c1C`, the “hERG current change (%, negative = inhibition) at 1uM” value was determined as 11%.

As for `COC(=O)C1=C(N)Oc2cc(C)n(Cc3ccncc3)c(=O)c2C1c1cccnc1` (stereo not drawn), the “hERG current change (%, negative = inhibition) at 1uM” value was 0.872%.

On to `OC1CCNC(=S)N1c1ccccc1` (stereo not drawn), for which the “hERG current change (%, negative = inhibition) at 1uM” value is recorded as 5.64%.

For the compound `COc1cccc(NC(=O)CN2C(=O)COc3ccc(S(=O)(=O)N4CCC(C)CC4)cc32)c1`, the “hERG current change (%, negative = inhibition) at 1uM” value was determined as 6.58%.

For the compound `O=C(NCCSc1c[nH]c2ccccc12)c1c(F)cccc1F`, the “hERG current change (%, negative = inhibition) at 1uM” value was -2.75%.

As to `O=C(COc1nnnc2ccccc12)N1CCCc2ccccc21`, the “hERG current change (%, negative = inhibition) at 1uM” value is recorded as -8.94%.

On to `Cc1cc(N/C=C\C(=O)c2ccc(Cl)c(Cl)c2)no1`, for which the “hERG current change (%, negative = inhibition) at 1uM” value turned out to be 6.94%.

As to `Cc1cc(C)c(NC(=O)CN(C)S(=O)(=O)c2ccc3c(c2)n(C)c(=O)c(=O)n3C)c(C)c1`, the “hERG current change (%, negative = inhibition) at 1uM” value is recorded as 9.07%.

For `Cc1ccc(CN2CC(C(=O)NC3CCCC(C)C3C)CC2=O)cc1` (stereo not drawn), the “hERG current change (%, negative = inhibition) at 1uM” value is -30.4%.

In the case of `Cc1cc2c(cn1)C(CCC#N)(CCC#N)c1ccccc1-2`, the “hERG current change (%, negative = inhibition) at 1uM” value stood at 15%.

As for `CC(C)OC(=O)C(CC(=O)O)N1CCOCC1` (stereo not drawn), the “hERG current change (%, negative = inhibition) at 1uM” value amounted to 12.1%.

In the case of `CCOC(=O)C1=C(CC)NC2=C(C(=O)CCC2)C1c1ccc(OC)c(OC)c1` (stereo not drawn), the “hERG current change (%, negative = inhibition) at 1uM” value was -0.785%.

Consider `Cn1c(Cc2ccccc2)n[nH]c1=S`, for which the “hERG current change (%, negative = inhibition) at 1uM” value was 15.2%.

Take `O=C(NCCCn1ccnc1)c1ccc2nccnc2c1`: the “hERG current change (%, negative = inhibition) at 1uM” value was found to be 11%.

On to `O=S1(=O)[C@H]2C[C@@H]3C=C[C@@]2(CN1Cc1cccc(C(F)(F)F)c1)O3`, for which the “hERG current change (%, negative = inhibition) at 1uM” value is reported as 7.76%.

On to `CCOc1ccc2nc(N3CCOCC3)nc(C)c2c1`, for which the “hERG current change (%, negative = inhibition) at 1uM” value stood at 6.82%.

With `Cc1cc(C)c2c(c1)-c1cc(C)nn1C(c1ccc3c(c1)OCO3)N2` (stereo not drawn), the “hERG current change (%, negative = inhibition) at 1uM” value was 8.12%.

For `CC(=O)NC1=NN(C(C)=O)C(C)(c2ccccc2)S1` (stereo not drawn), the “hERG current change (%, negative = inhibition) at 1uM” value worked out at 19.5%.

Turning to `COc1ccc(C(=O)COC(=O)CCN2C(=O)C3C4CCC(C4)C3C2=O)cc1` (stereo not drawn), the “hERG current change (%, negative = inhibition) at 1uM” value is 5.64%.

Consider `COc1cccc(NC(=O)CN(C)C(=O)Cc2ccc(Cl)cc2Cl)c1`, for which the “hERG current change (%, negative = inhibition) at 1uM” value is given as 14.8%.

As for `Cc1ccc(F)cc1NS(=O)(=O)c1ccc(Cl)s1`, the “hERG current change (%, negative = inhibition) at 1uM” value is on record as 7.81%.

Consider `O=C(CCc1nnc(Cc2cccc(C(F)(F)F)c2)o1)NCCc1ccccc1F`, for which the “hERG current change (%, negative = inhibition) at 1uM” value stood at 14.9%.

As for `COc1ccc(OC)c(CNC(=O)C2CCCN(C(=O)N(C)C)C2)c1` (stereo not drawn), the “hERG current change (%, negative = inhibition) at 1uM” value stood at 10.5%.

Regarding `O=C(CCS(=O)(=O)c1ccccc1)Nc1nc2c(s1)CCCC2`, the “hERG current change (%, negative = inhibition) at 1uM” value was 7.84%.

As for `O=C(NCc1ccccc1Cl)C1CCCN(S(=O)(=O)c2cccc3nsnc23)C1` (stereo not drawn), the “hERG current change (%, negative = inhibition) at 1uM” value is recorded as -0.909%.

As to `CCOc1ccccc1/C=N/NC(=O)c1c(C)nc2ccc(Br)cn12`, the “hERG current change (%, negative = inhibition) at 1uM” value is given as 18.2%.

Turning to `Cc1cc(N2CCN(c3ccc(F)cc3)CC2)nc(-c2ccccc2)n1`, the “hERG current change (%, negative = inhibition) at 1uM” value is listed as -1.49%.

In the case of `CNC(=O)c1cc2c(cn1)[nH]c1ccccc12`, the “hERG current change (%, negative = inhibition) at 1uM” value worked out at 30.5%.

With `Cc1cccc(N2CC(=O)N(c3cccc(C)c3)CC2=O)c1`, the “hERG current change (%, negative = inhibition) at 1uM” value is -2.56%.

In the case of `O=C1CCC(c2ccc3c(c2)CCC3)=NN1`, the “hERG current change (%, negative = inhibition) at 1uM” value was 14.2%.

Regarding `CCc1ccc(NC(=O)N2CCN(C(=O)C3CCCO3)CC2)cc1` (stereo not drawn), the “hERG current change (%, negative = inhibition) at 1uM” value was 13%.

In the case of `N#C/C(=C\c1cccs1)C(=O)Nc1nccs1`, the “hERG current change (%, negative = inhibition) at 1uM” value amounted to 6.72%.

As for `CCN(CC(=O)Nc1ccc(C)c(F)c1)CC(=O)NC(C)C`, the “hERG current change (%, negative = inhibition) at 1uM” value was 8.87%.

As to `O=C(CCC(=O)N1CCN(S(=O)(=O)c2ccccc2)CC1)c1cccs1`, the “hERG current change (%, negative = inhibition) at 1uM” value is listed as -1.07%.

Regarding `COc1ccccc1C(c1nnnn1Cc1ccccc1)N1CCN(C2CCCC2)CC1.Cl` (stereo not drawn), the “hERG current change (%, negative = inhibition) at 1uM” value is reported as -5.39%.

With `COc1ccc(Oc2c(C=O)c3ccccc3n2C)cc1`, the “hERG current change (%, negative = inhibition) at 1uM” value is reported as 3.54%.
